# The other results are listed elsewhere or left out.
# What was measured:
# [1] = system: HSkMC (human skeletal muscle cells); assay: cytotoxicity call (relative viability < 0.9); conditions: 10 µM
# [2] = system: HepG2; assay: cytotoxicity call (relative viability < 0.9); conditions: 10 µM
# [3] = system: S. aureus RN4220; assay: growth inhibition call (relative growth <= 0.2); conditions: 50 µM
SMILES,cytotoxicity call [1],cytotoxicity call [2],growth inhibition call [3]
COCC#Cc1cnc2c(c1)C(=O)N([C@@H](C)CO)C[C@H](C)[C@H](CN(C)S(=O)(=O)c1ccccc1)O2,inactive,inactive,inactive
CCCC(=O)Nc1ccc2c(c1)C(=O)N(C)C[C@@H](OC)[C@H](C)CN(C(=O)Cc1cccnc1)[C@H](C)CO2,inactive,inactive,inactive
Cc1ccc(S(=O)(=O)Nc2ccc3c(c2)CC(=O)N([C@H](C)CO)C[C@@H](C)[C@H](CN(C)C(=O)NC(C)C)O3)cc1,inactive,inactive,inactive
CC(C)NC(=O)N(C)C[C@H]1Oc2ncc(-c3ccc(C(=O)N(C)C)cc3)cc2C(=O)N([C@H](C)CO)C[C@@H]1C,inactive,inactive,inactive
COc1ccc(S(=O)(=O)N(C)C[C@@H]2OCCCC[C@@H](C)Oc3ccc(NS(=O)(=O)c4ccc(Cl)cc4)cc3C(=O)N([C@@H](C)CO)C[C@H]2C)cc1,inactive,active,inactive
COc1ccccc1C(=O)Nc1ccc2c(c1)C(=O)N(C)[C@@H]1CC[C@H](CC(=O)NCc3ccc(Cl)c(Cl)c3)O[C@@H]1CO2,inactive,inactive,inactive
Cn1nc(C2CC2)cc1N,inactive,inactive,inactive
CN1CCN(C(=O)C[C@H]2CC[C@@H]3[C@@H](COc4ccc(NC(=O)C5CCCCC5)cc4C(=O)N3C)O2)CC1,inactive,inactive,inactive
C[C@@H]1CCCCO[C@H](CN(C)C(=O)c2ccccc2)[C@H](C)CN([C@H](C)CO)C(=O)c2cc(NS(=O)(=O)c3cccs3)ccc2O1,inactive,inactive,inactive
Cc1noc(C)c1S(=O)(=O)Nc1ccc2c(c1)C(=O)N([C@H](C)CO)C[C@@H](C)[C@H](CN(C)Cc1ccc(C(F)(F)F)cc1)OCCCC[C@@H](C)O2,inactive,inactive,inactive
C[C@H]1CN([C@@H](C)CO)C(=O)c2cc(NC(=O)Cn3cnnn3)ccc2O[C@@H]1CN(C)Cc1ccc(C(=O)Nc2ccccc2N)cc1,inactive,inactive,inactive
C[C@@H]1CCCCO[C@@H](CN(C)CC2CCCCC2)[C@@H](C)CN([C@H](C)CO)C(=O)c2cc(NC(=O)CCCN(C)C)ccc2O1,inactive,inactive,inactive
O=C(O)c1ccncc1,inactive,inactive,inactive
COc1ccccc1C#Cc1ccc2c(c1)O[C@H](CN(C)Cc1cccnc1)[C@@H](C)CN([C@H](C)CO)S2(=O)=O,inactive,active,inactive
Cl.N[C@H](Cc1ccccc1)C(=O)O,inactive,inactive,inactive
C[C@@H]1CN([C@H](C)CO)C(=O)Cc2cc(NC(=O)Nc3cccc4ccccc34)ccc2O[C@@H]1CN(C)C(=O)Nc1ccc2c(c1)OCO2,inactive,inactive,inactive
